Experiment [1] addresses T1, Her2 protein (human, UniProt P04626 partial chain).
T1 construct: Bought protein; also called human Her2 protein

Experiment [2] addresses T1, Her2 protein. This is another data set of the same source.
The target in experiment [3] is T1, Her2 protein. This is another data set of the same source.
In experiment [4] the target is T1, Her2 protein. The source holds these as a separate data set.
Experiment [5] has as its target T1, Her2 protein. The source holds these as a separate data set.
The target in experiment [6] is T1, Her2 protein. The source holds these as a separate data set.
Experiment [7] addresses T1, Her2 protein. The source holds these as a separate data set.
For experiment [8], the target named is T1, Her2 protein. The source holds these as a separate data set.
The target of the next experiment is T2, monkey EGFR protein (cynomolgus monkey, UniProt P55245 partial chain (rhesus entry)).
T2 construct: Bought protein (SB 90285-C08H); also called cynomolgus monkey EGFR

For experiment [9], the target named is T3, human EGFR protein (human, UniProt P00533 partial chain).
T3 construct: also called human EGFR-His; human EGFR-ECD protein; not shown: His tag

The target in experiment [10] is T3, human EGFR protein. The source holds these as a separate data set.
The target of experiment [11] is T4, human EGFR on cells (human, UniProt P00533).
A further experiment concerns the target T5, monkey EGFR on cells (cynomolgus monkey, UniProt P55245 (rhesus entry)).
T5 construct: also called HEK293T-monkey EGFR
In words: FACS on HEK293T-monkey EGFR cells.

Experiment [12] addresses T4, human EGFR on cells. The source holds these as a separate data set.
The target of experiment [13] is T6, human EGFR-His-tagged fusion protein (human, UniProt P00533 partial chain).
T6 construct: extracellular domain; bought; also called human EGFR protein; human EGFR-His protein

In experiment [14] the target is T6, human EGFR-His-tagged fusion protein. This is another data set of the same source.
Experiment [15] shares this target. This is another data set of the same source.
Experiment [16] has the same target. This is another data set of the same source.
Experiment [17] has the same target. The source holds these as a separate data set.
For experiment [18] the target is unchanged. This is another data set of the same source.
Experiment [19] has the same target. This is another data set of the same source.
Experiment [20] shares this target. This is another data set of the same source.
The target in another experiment is T7, pepvIII polypeptide (human).
T7 construct: synthetic peptide (GL Biochem); also called Leu25-His37 polypeptide
T7 peptide: LEEKKGNYVVTDH
In words: ELISA on coated pepvIII. Background: ELISA stands for enzyme-linked immunosorbent assay.

Read-outs that look alike come from different tables or passages of the source.

B1: S008-NB148-2 (Fc fusion)
chain: EVQVVESGGGLVQAGGSLRLSCAASGSTFSSYAMTWYRQAPGKQRELVAAISSGGSTNYAASVKGRFTISRDNAKNTLYLQMNTLKPEDTAVYYCNTDWGNGFSAEYDYWGQGTQVTVSS[human IgG1 Fc with changes not shown]
notes: Tested as VHH-Fc; order VHH-hinge-Fc inferred
Broadly, the Kd is the constant that tells how readily two partners part at equilibrium. In general, koff refers to the first-order rate constant of dissociation. By kon is commonly meant the rate constant with which the complex forms. As a reminder, the EC80 is the concentration at which the effect reaches the 80% level. As to B1, the OD450 with Her2 protein [1] came out at 0.1; with Her2 protein [2], 0.17; with Her2 protein [3] it was 0.11; with Her2 protein [4], 0.13; with Her2 protein [5], 0.07; in the experiment with Her2 protein [6], 0.07. Further, the OD450 with Her2 protein [7] was 0.11; with Her2 protein [8] it was 0.12. Moreover, the binding result with monkey EGFR protein is “no binding (tested: 200 nM (highest antigen concentration))”. The molecule further registered a Kd in the experiment with human EGFR protein [9] of 521 nM. In the experiment with human EGFR protein [9], this molecule yielded a koff of 0.0052 s⁻¹. The molecule further registered a kon with human EGFR protein [9] of 9980 M⁻¹ s⁻¹. This molecule also displayed an EC80 in the experiment with human EGFR protein [10] of 15.2 µg/mL.

B2: S008-NB148-2 (Fc fusion)
chain: EVQVVESGGGLVQAGGSLRLSCAASGSTFSSYAMTWYRQAPGKQRELVAAISSGGSTNYAASVKGRFTISRDNAKNTLYLQMNTLKPEDTAVYYCNTDWGNGFSAEYDYWGQGTQVTVSS[human IgG1 Fc with changes not shown]
notes: VHH-Fc (VHH, human IgG1 hinge, human IgG1 Fc)
As a reminder, the EC50 is the concentration that produces a half-maximal response. With B2, the “Max MFI” value worked out at 12700 with human EGFR on cells [11] and 9890 with human EGFR on cells [12]. The binding result in the experiment with monkey EGFR on cells is on record as “no binding”. Moreover, the response with human EGFR on cells [12] was half-maximal at 28.1 nM (EC50). The OD450 was determined as 2.16 in experiment [13]; 2.61 in experiment [14]; 1.05 in [15]; 2.8 in experiment [16]; 0.19 in experiment [17]; 0.06 in experiment [18]. Moreover, the OD450 in experiment [19] and in experiment [20] was 0.05 throughout.

B3: S008-NB148-77 (Fc fusion)
chain: EVQVVESGGGLVQAGGSLRLSCVASGFDFSDSVMGWYRQAPGKQREAVAIISSVGQSNYRDSVQGRFTVSRSNTENTMYLQMDSLKPEDTAIYYCKKFGPGEYWGQGTQVTVSS[human IgG1 Fc with changes not shown]
notes: as for B2
Consider B3, for which the EC50 with human EGFR on cells [11] is 3.96 nM; with human EGFR on cells [12] it was 1.16 nM. For the same molecule, the “Max MFI” value stood at 16100 with human EGFR on cells [11] and 19900 in the experiment with human EGFR on cells [12]. Besides, the binding result with pepvIII polypeptide is “no binding (tested: 100 nM)”. The OD450 in [13] amounted to 2.07; in [14], 1.9; in experiment [15] it was 1.78; in experiment [16] it was 2.18; in experiment [17], 0.67; in [18] it was 0.13. For the same molecule, the values for the OD450 in experiment [19] and in experiment [20] were 0.06 and 0.35, respectively.
